Laboratory results: the supplement of paper PMC4604168 (melanoma cell lines)
Some of the results follow. Most values come without repeats; read them as rough.

Columns and labels:
Experiment in all cases: cell count relative to DMSO control; melanoma cells; higher = more viable cells
Details in all cases: library dose: standard library concentration; 72 h; first compound 2 µM
G361 = system: G361
IPC-298 = system: IPC-298
IST-MEL1 = system: IST-MEL1
LB2518-MEL = system: LB2518-MEL
LOXIMVI = system: LOXIMVI
MEL-HO = system: MEL-HO
MZ2-MEL = system: MZ2-MEL
MeWo = system: MeWo
RPMI7951 = system: RPMI7951
RVH-421 = system: RVH-421
SkMel28 = system: SkMel28
SkMel2 = system: SkMel2
SkMel30 = system: SkMel30
SkMel5 = system: SkMel5
UACC257 = system: UACC257
UACC62 = system: UACC62
WM115 = system: WM115
WM1716 = system: WM1716
WM1745 = system: WM1745
WM3526 = system: WM3526
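Further: cells treated in 1,536-well plates, then fixed and DAPI-stained, with nuclei counted from automated high-throughput microscope images.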

Row | SMILES | cell count (G361) [%] | cell count (IPC-298) [%] | cell count (IST-MEL1) [%] | cell count (LB2518-MEL) [%] | cell count (LOXIMVI) [%] | cell count (MEL-HO) [%] | cell count (MZ2-MEL) [%] | cell count (MeWo) [%] | cell count (RPMI7951) [%] | cell count (RVH-421) [%] | cell count (SkMel28) [%] | cell count (SkMel2) [%] | cell count (SkMel30) [%] | cell count (SkMel5) [%] | cell count (UACC257) [%] | cell count (UACC62) [%] | cell count (WM115) [%] | cell count (WM1716) [%] | cell count (WM1745) [%] | cell count (WM3526) [%]
1 | Cn1sc(=O)n(Cc2ccccc2)c1=O + Cc1cc(Nc2cc(N3CCN(C)CC3)nc(/C=C/c3ccccc3)n2)n[nH]1 [ENMD2076] (partner dose 0.2 µM) | 101 | 99.9 | 94.2 | 78.3 | 91 | 108 | 109 | 95.7 | 90.2 | 71.3 | 60.7 | 95.3 | 90.8 | 75 | 96.6 | 117 | 82.2 | 95.9 | 86.5 | 79.2
2 | CCCCCCCCCCCCCCCCCCOP(=O)([O-])OC1CC[N+](C)(C)CC1 [Perifosine] + O=C(O)c1ccc(-c2c[nH]c3ncc(-c4ccccc4)cc23)cc1C1CCCC1 [GSK650394] (partner dose 0.8 µM) | 75.8 | 92.9 | 93.8 | 82.4 | 54.8 | 59.4 | 122 | 91.2 | 15.8 | 103 | 37.7 | 65.5 | 105 | 74.3 | 87.8 | 84.3 | 87.1 | 85.7 | 72.5 | 79.6
3 | C[C@@H](N)c1ccc(C(=O)Nc2ccnc3[nH]ccc23)cc1 + C=CCn1c(=O)c2cnc(Nc3ccc(N4CCN(C)CC4)cc3)nc2n1-c1cccc(C(C)(C)O)n1 [MK1775] (partner dose 0.1 µM) | 58 | 77.1 | 88.2 | 47.8 | 88.7 | 79.5 | 67.9 | 69.8 | 39.1 | 50.9 | 44.9 | 77.4 | 59.3 | 45 | 71.8 | 56.7 | 53.5 | 45.9 | 26.5 | 59.2
4 | C[C@@H](N)c1ccc(C(=O)Nc2ccnc3[nH]ccc23)cc1 + Nc1cccc2c1CN(C1CCC(=O)NC1=O)C2=O [lenalidomide] (partner dose 5 µM) | 86 | 103 | 87.8 | 102 | 101 | 70.6 | 53.4 | 74.9 | 71.6 | 57.8 | 60.6 | 85.9 | 86.1 | 69 | 79.5 | 90.8 | 107 | 50.1 | 53.9 | 76.2
5 | CCCCCCCCCCCCCCCCCCOP(=O)([O-])OC1CC[N+](C)(C)CC1 [Perifosine] + NC(=O)Nc1cc(-c2cccc(F)c2)sc1C(=O)N[C@H]1CCCNC1 [AZD7762] (partner dose 0.1 µM) | 99.6 | 97.3 | 75.2 | 64 | 96.2 | 102 | 133 | 89.1 | 27.6 | 116 | 23.2 | 72.1 | 86.3 | 96.2 | 125 | 86.9 | 81.7 | 72.2 | 53.5 | 79
6 | Cn1sc(=O)n(Cc2ccccc2)c1=O + CO[C@H]1C[C@@H]2CC[C@@H](C)[C@@](O)(O2)C(=O)C(=O)N2CCCC[C@H]2C(=O)O[C@H]([C@H](C)C[C@@H]2CC[C@@H](OCCO)[C@H](OC)C2)CC(=O)[C@H](C)/C=C(\C)[C@@H](O)[C@@H](OC)C(=O)[C@H](C)C[C@H](C)/C=C/C=C/C=C/1C [everolimus] (partner dose 0.1 µM) | 67.5 | 69.1 | 87.6 | 82.6 | 88 | 71.5 | 98.3 | 86 | 78 | 77.5 | 47.7 | 80.2 | 83.9 | 74.2 | 108 | 74 | 73.2 | 77.9 | 96.1 | 109
7 | CCCCCCCCCCCCCCCCCCOP(=O)([O-])OC1CC[N+](C)(C)CC1 [Perifosine] + O=C(/C=C/c1cccnc1)NCCCCC1CCN(C(=O)c2ccccc2)CC1 [FK866] (partner dose 0.05 µM) | 3.25 | 31.3 | 50.1 | 66.5 | 106 | 44 | 37.4 | 107 | 85.2 | 36.3 | 80.1 | 14.2 | 137 | 128 | 101 | 107 | 104 | 95.9 | 108 | 113
8 | Cn1sc(=O)n(Cc2ccccc2)c1=O + C[C@]1(c2nc3c(C(N)=O)cccc3[nH]2)CCCN1 [Veliparib] (partner dose 7 µM) | 87.2 | 90.7 | 99.2 | 69.4 | 71.8 | 94.7 | 87.8 | 94.8 | 51.7 | 96 | 80 | 91.5 | 109 | 106 | 99.3 | 65.5 | 85.8 | 91 | 103 | 103
9 | Cn1sc(=O)n(Cc2ccccc2)c1=O + CN(NC(=O)CC(=O)NN(C)C(=S)c1ccccc1)C(=S)c1ccccc1 [STA4783] (partner dose 0.03 µM) | 30.5 | 90.2 | 22.9 | 33.9 | 56.4 | 95.2 | 94.8 | 24.6 | 83.5 | 63.6 | 33.4 | 89.4 | 121 | 80.2 | 119 | 69.5 | 46.2 | 82.4 | 48.1 | 105
10 | CCCCCCCCCCCCCCCCCCOP(=O)([O-])OC1CC[N+](C)(C)CC1 [Perifosine] + Nc1ccn([C@@H]2O[C@H](CO)[C@@H](O)C2(F)F)c(=O)n1 [gemcitabine] (partner dose 0.002 µM) | 44.7 | 46.1 | 39.7 | 56.3 | 52.7 | 64.5 | 78.8 | 48.4 | 18.7 | 63.8 | 61.6 | 83.9 | 71.2 | 93 | 105 | 75.1 | 71.7 | 59.7 | 52.8 | 72.1
11 | CCCCCCCCCCCCCCCCCCOP(=O)([O-])OC1CC[N+](C)(C)CC1 [Perifosine] + CN(c1ncccc1CNc1nc(Nc2ccc3c(c2)CC(=O)N3)ncc1C(F)(F)F)S(C)(=O)=O [PF562271] (partner dose 0.4 µM) | 115 | 97 | 95.9 | 92.1 | 62.9 | 44.5 | 111 | 91.1 | 6.06 | 116 | 109 | 113 | 87.4 | 95.9 | 86.3 | 58 | 87.6 | 79.9 | 88.3 | 90.9
12 | CCCCCCCCCCCCCCCCCCOP(=O)([O-])OC1CC[N+](C)(C)CC1 [Perifosine] + C[C@@H]1CCN(C(=O)CC#N)C[C@@H]1N(C)c1ncnc2[nH]ccc12 [CP690550] (partner dose 5 µM) | 85.7 | 97.4 | 98.1 | 79.4 | 108 | 76.9 | 118 | 106 | 22.1 | 99.6 | 72.8 | 104 | 78 | 114 | 118 | 111 | 85.2 | 71 | 68.8 | 90.3
13 | C[C@@H](N)c1ccc(C(=O)Nc2ccnc3[nH]ccc23)cc1 + Cc1cc(N2CCOCC2)cc2[nH]c(-c3c(NC[C@@H](O)c4cccc(Cl)c4)cc[nH]c3=O)nc12 [BMS536924] (partner dose 1 µM) | 54.3 | 97.2 | 81.3 | 108 | 60.8 | 76 | 57.4 | 54.5 | 33.3 | 61.1 | 84.3 | 71.9 | 85 | 53.3 | 62.9 | 92.6 | 85.5 | 47.7 | 22.5 | 67
14 | C[C@@H](N)c1ccc(C(=O)Nc2ccnc3[nH]ccc23)cc1 + CC(C)(C)c1cnc(CSc2cnc(NC(=O)C3CCNCC3)s2)o1 [SNS-032] (partner dose 0.05 µM) | 90.6 | 101 | 78.4 | 84.3 | 79.3 | 76.8 | 62.7 | 76.3 | 16.6 | 39.1 | 71.3 | 62.7 | 81.4 | 55.5 | 68.2 | 65.8 | 104 | 44.1 | 48.4 | 97.1
15 | Cn1sc(=O)n(Cc2ccccc2)c1=O + CO[C@@H]1[C@H](N(C)C(=O)c2ccccc2)C[C@H]2O[C@]1(C)n1c3ccccc3c3c4c(c5c6ccccc6n2c5c31)C(=O)NC4 [Midostaurin] (partner dose 0.4 µM) | 68 | 82.2 | 52.5 | 67.9 | 69.7 | 85.5 | 87.6 | 104 | 52.4 | 327 | 48.6 | 64.7 | 95.7 | 54.7 | 72.9 | 68.1 | 66 | 68.6 | 49.7 | 82.7
16 | Cn1sc(=O)n(Cc2ccccc2)c1=O + OCCn1cc(-c2cnc3nnn(Cc4ccc5ncccc5c4)c3n2)cn1 [PF04217903] (partner dose 5 µM) | 78.3 | 108 | 91.7 | 100 | 94.6 | 99.2 | 95.5 | 99.8 | 61.5 | 119 | 131 | 87.7 | 69.1 | 92.4 | 92.9 | 90.1 | 99.1 | 100 | 89.5 | 102
17 | CCCCCCCCCCCCCCCCCCOP(=O)([O-])OC1CC[N+](C)(C)CC1 [Perifosine] + NCC(=O)Nc1ccc(-n2nc(C(F)(F)F)cc2-c2ccc3c(ccc4ccccc43)c2)cc1 [OSU03012] (partner dose 5 µM) | 66.3 | 57.8 | 86.2 | 82.7 | 83.2 | 68.7 | 85.4 | 108 | 43.9 | 67.7 | 16.3 | 30.6 | 36.1 | 61.7 | 68.1 | 83.4 | 78.4 | 83.3 | 99.5 | 50.9
18 | Cn1sc(=O)n(Cc2ccccc2)c1=O + Nc1ncn([C@H]2C[C@H](O)[C@@H](CO)O2)c(=O)n1 [decitabine] (partner dose 0.5 µM) | 84.1 | 53.6 | 70.6 | 72.7 | 77 | 82.9 | 68.8 | 78.1 | 86.6 | 95.8 | 130 | 103 | 93.2 | 76 | 105 | 89.2 | 76.7 | 65.4 | 103 | 85.1
